Measurements reported in the supplement of paper PMC7125110.
± gives the standard error. This sample is rich in variants without activity.

B1: glmS ribozyme (parent)
chain: AUAAAAGCGCCAGAACUACAGAAAUGUAGUUGACGAGGAGGAGGUUUAUCGAAUUUUCGGCGGAUGCCUCCAAA

Tests used:
Details in all cases: with glucosamine-6-phosphate
glucosamine-6-phosphate [1] = variants of: B1; assay: self-cleavage kobs at 640 uM GlcN6P; higher = faster cleavage; RNA array
How it was run: (§1)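 Glucosamine-6-phosphate in HEPES/KCl/Mg(OAc)2 buffer, at 40 μM to 10 mM, was flowed over barcoded ribozyme variants transcribed in situ by E. coli RNA polymerase on sequenced MiSeq chips. Tracking was through a hybridised Cy3 probe at 37 °C. kobs, kcat and KM came from exponential decay fits and weighted Michaelis–Menten fits of normalised per-tile medians.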

glucosamine-6-phosphate [2] = variants of: B1; assay: self-cleavage kobs at 2500 uM GlcN6P; higher = faster cleavage; RNA array
How it was run: as §1

glucosamine-6-phosphate [3] = variants of: B1; assay: self-cleavage kobs at 160 uM GlcN6P; higher = faster cleavage; RNA array
How it was run: as §1

glucosamine-6-phosphate [4] = variants of: B1; assay: self-cleavage kobs at 10000 uM GlcN6P; higher = faster cleavage; RNA array
How it was run: as §1

| Variant | self-cleavage kobs at 640 uM GlcN6P (glucosamine-6-phosphate [1]) [s⁻¹] | self-cleavage kobs at 2500 uM GlcN6P (glucosamine-6-phosphate [2]) [s⁻¹] | self-cleavage kobs at 160 uM GlcN6P (glucosamine-6-phosphate [3]) [s⁻¹] | self-cleavage kobs at 10000 uM GlcN6P (glucosamine-6-phosphate [4]) [s⁻¹] |
| --- | --- | --- | --- | --- |
| C10G U30A G32A U47A | < 1e-05 | < 1e-05 | – | – |
| C11A G29U A42C | < 1e-05 | < 1e-05 | < 1e-05 | – |
| C11G G38C A42C U56C C58G | < 1e-05 | < 1e-05 | – | – |
| A12G G13U A48C | < 1e-05 | < 1e-05 | < 1e-05 | – |
| C11G U30C G62A C71G | < 1e-05 | – | – | – |
| C10A U31G A33C G35A G40C | < 1e-05 | – | – | – |
| A12C G44A A53U | 5.92e-05 ± 1.6e-05 | 0.000169 ± 4.4e-05 | – | – |
| C10A A39C C50U | < 1e-05 | – | – | – |
| C10G U49A U57C G59U | < 1e-05 | – | – | – |
| A12C C67A C68A | 7.04e-05 ± 1.6e-05 | 4.41e-05 ± 2.1e-05 | – | – |
| C11A C16G A39G G41U U56A | < 1e-05 | < 1e-05 | – | – |
| C10A C16U C67G | 0.000345 ± 0.00015 | – | – | – |
| C10A A12G A15C G44C | < 1e-05 | – | – | – |
| C10U C11G G13U A48U C58A | < 1e-05 | < 1e-05 | – | – |
| C10A U46A | < 1e-05 | < 1e-05 | < 1e-05 | < 1e-05 |
| C11A G32A | < 1e-05 | – | < 1e-05 | – |
| C11A U30G | 6.39e-05 ± 1.1e-05 | 0.000172 ± 5.6e-05 | – | 0.000422 ± 9.6e-05 |
| A12G U57A G60U | < 1e-05 | < 1e-05 | – | < 1e-05 |
| C10A U55C | < 1e-05 | – | – | – |

| Variant | self-cleavage kobs at 640 uM GlcN6P (glucosamine-6-phosphate [1]) [s⁻¹] | self-cleavage kobs at 2500 uM GlcN6P (glucosamine-6-phosphate [2]) [s⁻¹] | self-cleavage kobs at 160 uM GlcN6P (glucosamine-6-phosphate [3]) [s⁻¹] | self-cleavage kobs at 10000 uM GlcN6P (glucosamine-6-phosphate [4]) [s⁻¹] |
| --- | --- | --- | --- | --- |
| C10A G63A | < 1e-05 | – | < 1e-05 | < 1e-05 |
| C11U G43U C67U | < 1e-05 | < 1e-05 | – | – |
| C10U G43A C50G | < 1e-05 | – | – | – |
| C10U G29A U31G | < 1e-05 | – | < 1e-05 | < 1e-05 |
| C10A A14G U69G | 0.000195 ± 7.6e-05 | 6.53e-05 ± 2.3e-05 | 0.000148 ± 5.1e-05 | – |
| A12G A15G | 7.71e-05 ± 9.2e-06 | 0.000155 ± 1.5e-05 | 2.24e-05 ± 1e-05 | 0.000371 ± 3.2e-05 |
| C10U C11G A14G G43C A53C | < 1e-05 | < 1e-05 | < 1e-05 | – |
| C10U G29U G35U | < 1e-05 | – | – | – |
| C10A C61G C67G C71G | 0.000346 ± 8.8e-05 | 0.000167 ± 8.1e-05 | – | – |
| C11A A15C A39U G40C G51A C70U | < 1e-05 | < 1e-05 | < 1e-05 | < 1e-05 |
| A12G G37C G66U U69C | < 1e-05 | – | – | – |
| A12C G60U G63U C70U | < 1e-05 | – | – | – |
| C10U A33U A52G A53U | < 1e-05 | < 1e-05 | – | – |
| C11G U57C | < 1e-05 | – | < 1e-05 | < 1e-05 |
| C10U A36U G51U | < 1e-05 | < 1e-05 | – | – |
| A12G G38U U57C | < 1e-05 | – | < 1e-05 | < 1e-05 |
| A12G A52C | < 1e-05 | – | < 1e-05 | < 1e-05 |
| C10A C68G | 6.2e-05 ± 2.8e-05 | 6.4e-05 ± 1.8e-05 | 0.000416 ± 0.00019 | – |
| C11A A12U G35A C70G | < 1e-05 | – | – | – |

| Variant | self-cleavage kobs at 640 uM GlcN6P (glucosamine-6-phosphate [1]) [s⁻¹] | self-cleavage kobs at 2500 uM GlcN6P (glucosamine-6-phosphate [2]) [s⁻¹] | self-cleavage kobs at 160 uM GlcN6P (glucosamine-6-phosphate [3]) [s⁻¹] | self-cleavage kobs at 10000 uM GlcN6P (glucosamine-6-phosphate [4]) [s⁻¹] |
| --- | --- | --- | --- | --- |
| C10G A48G U54G | < 1e-05 | – | – | – |
| A12C G51C | < 1e-05 | < 1e-05 | < 1e-05 | < 1e-05 |
| C10G A15C G35C A39G | < 1e-05 | – | – | – |
| A12C U65G C67U | 0.000474 ± 0.00016 | – | – | – |
| C11A A39G | 0.000101 ± 2.7e-05 | 0.000121 ± 2.7e-05 | – | – |
| C11U G44U G60A C61G | < 1e-05 | < 1e-05 | < 1e-05 | – |
| C10A C34U C50G G62U | 0.000144 ± 4.8e-05 | 8.51e-05 ± 2.1e-05 | 0.00045 ± 0.00013 | – |
| C11A A48C U65C C70G | < 1e-05 | – | < 1e-05 | – |
| A12G G59C A64U | < 1e-05 | – | – | – |
| C10U A12G G32U G43U G59A | < 1e-05 | – | < 1e-05 | – |
| A12U A14G G32U G44C A48U G66A | < 1e-05 | < 1e-05 | – | – |
| C11U A15U C70G | 0.000134 ± 4.8e-05 | – | – | – |
| A12C A42U A53U U57G | < 1e-05 | – | – | – |
| C10U U31A A39C | < 1e-05 | < 1e-05 | – | – |
| C10G U31C A48U C61A C70G | < 1e-05 | – | < 1e-05 | – |
| C10U A48C C50A | < 1e-05 | < 1e-05 | – | – |
| A12C G13U A48G | < 1e-05 | < 1e-05 | – | – |
| C11G A12G U31G G44U C50G G66A | < 1e-05 | – | – | – |
